The full ranking holds about 33,000 sequences; the median of “E-score (-0.5 to 0.5)” is about -0.016, and the highest 2% start at about 0.32. The list shows a part of the results.
target: T1, Stp1 (UniProt B3LFK1); experiment: PBM E-score (8-mer binding enrichment) (E-score (-0.5 to 0.5)); higher = stronger / more preferred TF binding; most listed sequences are background and not binding sites; conditions: protein concentration: 200 nM; construct: GST-full length
T1 sequence: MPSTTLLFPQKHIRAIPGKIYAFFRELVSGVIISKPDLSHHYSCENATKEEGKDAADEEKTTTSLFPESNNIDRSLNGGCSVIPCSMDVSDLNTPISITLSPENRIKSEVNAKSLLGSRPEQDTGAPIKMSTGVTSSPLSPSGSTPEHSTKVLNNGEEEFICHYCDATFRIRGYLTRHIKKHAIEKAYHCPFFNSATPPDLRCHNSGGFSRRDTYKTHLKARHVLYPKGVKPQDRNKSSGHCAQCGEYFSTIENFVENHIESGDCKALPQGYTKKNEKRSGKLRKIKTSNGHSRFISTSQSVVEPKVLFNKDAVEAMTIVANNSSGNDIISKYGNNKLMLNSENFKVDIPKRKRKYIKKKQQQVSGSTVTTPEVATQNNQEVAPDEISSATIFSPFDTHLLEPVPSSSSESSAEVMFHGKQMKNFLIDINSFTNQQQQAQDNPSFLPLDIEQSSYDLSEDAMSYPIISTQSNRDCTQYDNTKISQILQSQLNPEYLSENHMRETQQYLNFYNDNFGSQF
Summary of the method: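 Yeast transcription factors carrying a GST tag, as full-length proteins or DNA-binding domains, were produced by PURExpress in vitro transcription/translation. About 100-200 nM protein was applied to universal all-10-mer Agilent arrays, double-stranded by primer extension on fresh or once-stripped slides. Bound protein was detected with fluorescent anti-GST, and scans were normalised with masliner. The Universal PBM Analysis Suite gave each ungapped eight-base word, pooled with its reverse complement, an E-score, a modified Wilcoxon-Mann-Whitney statistic.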

Row | Sequence | PBM E-score
1 | ACCAGACT | -0.238
2 | ACAATTAT | 0.199
3 | ATTTGTGG | 0.182
4 | ACGAAGTG | 0.0266
5 | ATCCCAGG | -0.238
6 | CCAGTTAC | -0.12
7 | TGGCAAAA | 0.292
8 | CCTAAAAA | 0.117
9 | CTCGTTCA | -0.0156
10 | ATAAGCCG | 0.0578
11 | CTTAAATC | 0.0764
12 | TCAAGTAA | 0.0823
13 | GCGTTCAA | 0.112
14 | CAGGAGAC | -0.175
15 | GCATCCTA | 0.0928
16 | ACATAGCG | 0.0669
17 | CTTTGCAC | 0.0969
18 | AAGAGGTC | -0.213
19 | GCCGTTAA | 0.168
20 | ACAGCCTA | 0.0411
21 | ATCAACTG | 0.0295
22 | AGGTCATC | -0.191
23 | GCCCCAAC | -0.112
24 | GTTCACTA | 0.00226
25 | CAATTGCG | 0.1

Row | Sequence | PBM E-score
26 | CCCGTCGG | 0.103
27 | AATGTTCC | -0.155
28 | ACCGCACG | 0.28
29 | ACTCGCAC | -0.0707
30 | ATATAGTG | 0.151
31 | AGTCCGTA | -0.0203
32 | GAAGAGCC | 0.281
33 | CCCCTATC | -0.302
34 | CAATGGGA | -0.0885
35 | GTTATTGA | 0.00688
36 | ATGGTATC | 0.00249
37 | ATGGTGTC | -0.00706
38 | ACGATTCC | -0.0968
39 | CCTTAGGC | -0.135
40 | AGTGTGCG | 0.0273
41 | AGTATCTA | -0.005
42 | ACCCTGAC | -0.0969
43 | ATTCGTCA | 0.134
44 | GGATCTGA | 0.0425
45 | ATGGGCCG | 0.123
46 | TTAATTAA | -0.106
47 | GTCACTTA | 0.0391
48 | GACGCATC | -0.18
49 | CCGCTGTA | 0.044
50 | CGCCCACG | 0.0827

Row | Sequence | PBM E-score
51 | CAATCGCA | 0.154
52 | ACGACTCA | -0.215
53 | TCCCCGAA | -0.182
54 | GGTCCTAA | -0.0551
55 | GGGAAGTA | -0.102
56 | CGCCTAGA | -0.0337
57 | CATAGGCA | -0.0351
58 | TCCCTTAA | -0.192
59 | TTCTACAA | 0.161
60 | GTTGCAGA | 0.0673
61 | CCGGGTCC | -0.295
62 | TAATACAA | 0.0682
63 | GATTATTA | -0.00214
64 | AATTTAGA | 0.0742
65 | AAGATTAT | -0.0261
66 | GGTGGCTA | 0.0168
67 | TCCGCCCA | -0.18
68 | CCAACCGC | 0.0116
69 | AAATCCCA | -0.017
70 | AAATATGC | 0.176
71 | CCGTATTA | 0.27
72 | GAATGGAC | -0.115
73 | TAGGTATA | 0.062
74 | CTTTAGTA | -0.0729
75 | AGCTGTGA | -0.132

Row | Sequence | PBM E-score
76 | AAATCCAG | -0.00717
77 | GTTCGTAA | -0.00745
78 | GTTGTCCA | -0.112
79 | CAATAGTA | 0.139
80 | AAGTACTC | -0.141
81 | AGAATGAT | 0.0859
82 | AAGGTCAA | -0.24
83 | AACTCCAC | -0.0546
84 | GCAGAGCA | -0.0964
85 | CTTGCGAC | -0.0932
86 | ATAGGGTA | -0.189
87 | GAGTCCTA | -0.21
88 | CTAGGATC | -0.106
89 | ATTTGGAA | 0.0474
90 | TAATTCCA | 0.0311
91 | GTGCAGAA | 0.141
92 | AGATTAGC | -0.0227
93 | AGAGACAG | -0.168
94 | GACCAGGC | -0.211
95 | ACGCTTAT | -0.056
96 | GCGCCGGA | 0.171
97 | CCGGCAGA | -0.0739
98 | CGGCGATC | 0.373
99 | CTCACATA | 0.0137
100 | TAGTGGAA | 0.00152

Row | Sequence | PBM E-score
101 | TCGGTGCA | -0.0749
102 | CATGCATA | 0.0666
103 | TGAAGGCA | 0.0723
104 | GCTTAACA | -0.0243
105 | ATCGAGCC | 0.173
106 | CGGCCCCA | 0.0342
107 | GAACACAC | 0.00772
108 | AACCGGGA | -0.264
109 | CAGCAGGA | -0.195
110 | AAGGGAAG | 0.00755
111 | AGAATACG | 0.0657
112 | CTTGGTCC | -0.125
113 | CACAACAG | -0.226
114 | AAAGGTTC | -0.0601
115 | TCAGTGCA | -0.178
116 | CAAATCCG | 0.00632
117 | CAATGGTC | -0.0151
118 | AACCCAGT | -0.11
119 | GGGGGACC | -0.298
120 | CGATCTAA | 0.00519
121 | AAAGCATT | 0.0917
122 | CCATGCAA | 0.146
123 | ACTGGCTG | -0.0827
124 | GCGACTAC | -0.132
125 | ACAACTCC | 0.0899

Row | Sequence | PBM E-score
126 | AAGGTGTA | -0.18
127 | CACTGCCA | 0.0847
128 | TAAAACTA | 0.128
129 | AATTAACA | 0.0673
130 | TGGCGACA | 0.0759
131 | ATCCGGGG | -0.0877
132 | GTCGAAAA | 0.0966
133 | ATAATGGC | 0.183
134 | CAGTCCCA | -0.293
135 | AATGCTCC | -0.148
136 | CAACCTAG | -0.172
137 | AGCCTGGG | -0.271
138 | CTATACGC | 0.00659
139 | CTGCTTCC | -0.281
140 | AGAAGTTC | 0.0255
141 | GTTACGCA | -0.0687
142 | CCGCATCA | 0.282
143 | CAGTGGAA | -0.0152
144 | AGATCCTG | -0.32
145 | CAGTACCA | -0.167
146 | CATGGCCA | -0.15
147 | ACGATTAC | -0.0334
148 | GATTAGGC | 0.02
149 | CCAGAGCA | -0.0297
150 | CCTTAACC | -0.221

Row | Sequence | PBM E-score
151 | AATTGACG | -0.0215
152 | CGGATACA | 0.144
153 | AGCGGGAA | 0.105
154 | ATGATCGC | -0.0857
155 | CCCCTCTC | -0.353
156 | AATTGATA | 0.22
157 | CTTCCTCA | -0.149
158 | ATGACACA | 0.206
159 | GCAAGCAC | -0.119
160 | TATACACA | 0.119
161 | ATGTCATG | 0.0282
162 | GCCTGAGA | -0.195
163 | AAGAACTC | 0.0151
164 | CAGTTAGA | 0.031
165 | CGAGACCA | -0.16
166 | CGTCACAA | 0.0793
167 | ATCATGTA | 0.0957
168 | GATACCGC | 0.0821
169 | ATTCGTAA | 0.0769
170 | CTCGTTCC | 0.0781
171 | GGTAGCGA | -0.184
172 | ACAAAATG | 0.223

From the supplement of paper PMC3334620
